Sequences and labels used below:
B1: chimera A-E57A-Fc (g4PEK) (Fc fusion)
chain: ETFPPKYLHYDEETSHQLLCDKCPPGTYLKQHCTAKWKTVCAPCPPRHYTQFWNYLARCRYCNVLCGEREEEARACHATHNRACRCRTGFFAHAGFCLEHASCPPGAGVIAPGTPSQNTQCQPCPDGFFSNETSSKAPCRKHTNCSVFGLLLTQKGNATHDNICSGNSESTQK[omitted - human IgG4 Fc with S228P L235E R409K (EU numbers)]
B2: chimera A-Fc (g4PEK) E57D (Fc fusion)
chain: B1 chain with A57D
B3: chimera A-E57V-Fc (Eg1S N434A) (Fc fusion)
chain: ETFPPKYLHYDEETSHQLLCDKCPPGTYLKQHCTAKWKTVCAPCPPRHYTQFWNYLVRCRYCNVLCGEREEEARACHATHNRACRCRTGFFAHAGFCLEHASCPPGAGVIAPGTPSQNTQCQPCPDGFFSNETSSKAPCRKHTNCSVFGLLLTQKGNATHDNICSGNSESTQK[omitted - human IgG1 Fc with changes]
B4: chimera A-E57R-Fc (Eg1S N434A) (Fc fusion)
chain: ETFPPKYLHYDEETSHQLLCDKCPPGTYLKQHCTAKWKTVCAPCPPRHYTQFWNYLRRCRYCNVLCGEREEEARACHATHNRACRCRTGFFAHAGFCLEHASCPPGAGVIAPGTPSQNTQCQPCPDGFFSNETSSKAPCRKHTNCSVFGLLLTQKGNATHDNICSGNSESTQK[omitted - human IgG1 Fc with changes]
B5: chimera A-E57K-Fc (Eg1S N434A) (Fc fusion)
chain: ETFPPKYLHYDEETSHQLLCDKCPPGTYLKQHCTAKWKTVCAPCPPRHYTQFWNYLKRCRYCNVLCGEREEEARACHATHNRACRCRTGFFAHAGFCLEHASCPPGAGVIAPGTPSQNTQCQPCPDGFFSNETSSKAPCRKHTNCSVFGLLLTQKGNATHDNICSGNSESTQK[omitted - human IgG1 Fc with changes]
B6: chimera A-E57K_R58E-Fc (Eg1S N434A) (Fc fusion)
chain: ETFPPKYLHYDEETSHQLLCDKCPPGTYLKQHCTAKWKTVCAPCPPRHYTQFWNYLKECRYCNVLCGEREEEARACHATHNRACRCRTGFFAHAGFCLEHASCPPGAGVIAPGTPSQNTQCQPCPDGFFSNETSSKAPCRKHTNCSVFGLLLTQKGNATHDNICSGNSESTQK[omitted - human IgG1 Fc with changes]
notes: also called 45-18-Fc (Eg1S N434A)
B7: chimera A-E57K_R58D-Fc (Eg1S N434A) (Fc fusion)
chain: ETFPPKYLHYDEETSHQLLCDKCPPGTYLKQHCTAKWKTVCAPCPPRHYTQFWNYLKDCRYCNVLCGEREEEARACHATHNRACRCRTGFFAHAGFCLEHASCPPGAGVIAPGTPSQNTQCQPCPDGFFSNETSSKAPCRKHTNCSVFGLLLTQKGNATHDNICSGNSESTQK[omitted - human IgG1 Fc with changes]
notes: also called 45-10-Fc (Eg1S N434A)

Residue numbers refer to the chain shown, from its start. Names may count otherwise.

The first experiment deals with T1, soluble recombinant of human TL1A (His6, GS linker, Leu72-Leu251) (UniProt O95150 72-251).
T1 chain: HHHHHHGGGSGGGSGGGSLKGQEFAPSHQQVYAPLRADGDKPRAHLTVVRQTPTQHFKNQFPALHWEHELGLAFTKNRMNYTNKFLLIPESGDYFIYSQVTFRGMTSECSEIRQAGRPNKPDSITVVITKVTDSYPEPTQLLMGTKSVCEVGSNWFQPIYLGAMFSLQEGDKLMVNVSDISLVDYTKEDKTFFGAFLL
In words: SPR. Background: Surface plasmon resonance follows binding to a sensor surface in real time, without labels.
Turning to B1, the dissociation rate constant (koff) (in general, a measure of how fast the partners let go of each other) turned out to be 0.000338 s⁻¹.
As for B2, the off-rate constant (koff) was found to be 0.000221 s⁻¹.

For a further experiment, the target named is T2, soluble recombinant of human LIGHT (His10, GS linker, Asp74-Val240).
T2 chain: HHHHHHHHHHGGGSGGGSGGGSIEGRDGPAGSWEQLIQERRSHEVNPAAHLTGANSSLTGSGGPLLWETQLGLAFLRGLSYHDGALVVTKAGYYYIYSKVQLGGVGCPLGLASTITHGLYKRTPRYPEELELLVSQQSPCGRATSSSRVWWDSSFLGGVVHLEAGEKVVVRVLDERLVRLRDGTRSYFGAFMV
In words: SPR.
For the molecule B1, the off-rate (koff) was determined as 0.000199 s⁻¹.
B2: the off-rate constant (koff) is 0.000195 s⁻¹.

In another experiment the target is T3, soluble recombinant of human FasL (His6, Pro134-Leu281) (UniProt P48023 134-281).
T3 chain: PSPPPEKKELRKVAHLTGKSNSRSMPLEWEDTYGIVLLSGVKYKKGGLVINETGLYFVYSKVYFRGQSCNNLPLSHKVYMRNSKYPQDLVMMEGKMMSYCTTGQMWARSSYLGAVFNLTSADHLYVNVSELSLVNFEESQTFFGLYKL
Kind of experiment: SPR.
With B1, the off-rate (koff) was 0.00701 s⁻¹.
With B2, the koff worked out at 0.00104 s⁻¹.

In a further experiment the target is T4, soluble recombinant of human TL1A (His6, GS linker, Leu72-Leu251) (human, UniProt O95150 72-251).
T4 construct: also called His6-TL1A; hTL1A
T4 sequence: T1 chain
Kind of experiment: SPR, binder captured on Protein A chip. As for the experimental part:
(§1) The binding activity to human and cynomolgus monkey DcR3 ligand trimers were analyzed by the SPR method. BIAcore T-100 (GE Healthcare) was used for measurement of the binding activities to human LIGHT, cynomolgus monkey LIGHT, human TL1A and cynomolgus monkey TL1A, and BIAcore T-200 (GE Healthcare) was used for measurement of the binding activities to human FasL and cynomolgus monkey FasL. As the buffer, HBS-EP+Buffer was used.
(§2) Various DcR3 variants were injected into Series S Sensor Chip Protein A (GE Healthcare) at 10 μL/min for 30 seconds and captured. Meanwhile, the buffer containing no protein was injected into a reference flow cell. Thereafter, as an analyte, each human DcR3 ligand trimer or each cynomolgus monkey DcR3 ligand trimer diluted to 0.08 to 20 nmol/L was injected. A human LIGHT trimer, a human TL1A trimer or each cynomolgus monkey DcR3 ligand trimer was injected at the flow rate of 30 μL/min for 2 minutes to monitor the binding, and subsequently the buffer was injected for 5 minutes to monitor dissociation. A human FasL trimer was injected at 30 μL/min for 1 minute to monitor the binding, and subsequently the buffer was injected for 3 minutes to monitor dissociation. Then, 3 mol/L magnesium chloride was injected at 30 μL/min for 1 minute to perform a regeneration reaction.
As for B3, the binding result was “binds”.
Take B4: the binding result is given as “binds”.
The same measure, in the same setting: under B5 stands “binds”; under B6, “binds”.
For the molecule B7, the binding result is reported as “binds”.

The target in the next experiment is T5, soluble recombinant of cynomolgus monkey TL1A (His6, GS linker, Leu72-Leu251) (cynomolgus monkey).
T5 construct: also called His6-cynoTL1A
T5 chain: T1 chain with F57L, I96V
In words: SPR, binder captured on Protein A chip. As for the experimental part:
as §1, §2
Turning to B3, the binding result is recorded as “binds”.
Consider B4, for which the binding result is reported as “binds”.
In the case of B5, the binding result is listed as “binds”.
For the molecule B6, the binding result was “binds”.
Same read-out and setting: the value for B7 was “binds”.

In a further experiment the target is T6, soluble recombinant of cynomolgus monkey FasL (His6, Pro133-Leu280) (cynomolgus monkey, UniProt P63308 133-280).
T6 construct: also called His6-cynoFasL
T6 sequence: T3 chain with L10Q, S20P, N70T, R108H
Kind of experiment: SPR, binder captured on Protein A chip. The protocol: as §1, §2
In the case of B3, the binding result is reported as “binds”.
For B4, the binding result is given as “binds”.
For the molecule B5, the binding result is “binds”.
As for B6, the binding result is given as “binds”.
In the case of B7, the binding result is given as “binds”.

A further experiment concerns the target T7, FLAG-LIGHT (FLAG tag, human LIGHT Asp74-Val240) (human, UniProt O43557 74-240).
T7 construct: SEC trimer fraction; also called soluble recombinant FLAG-LIGHT trimer; soluble human LIGHT trimer
Kind of experiment: SPR, binder captured on Protein A chip. The protocol: as §1, §2
On to B3, for which the binding result was “binds”.
Regarding B4, the binding result is “binds”.
Same read-out and setting: under B5 stands “binds”; under B6, “binds”.
With B7, the binding result is “binds”.

The target of a further experiment is T8, Human His6 Fas Ligand/TNFSF6 (Cell Signaling Technology, Inc.) (human, UniProt P48023 133-281).
T8 construct: Bought; confirmed as a trimer by SEC-MALS; also called recombinant human His6 Fas Ligand; soluble human FasL trimer
T8 sequence: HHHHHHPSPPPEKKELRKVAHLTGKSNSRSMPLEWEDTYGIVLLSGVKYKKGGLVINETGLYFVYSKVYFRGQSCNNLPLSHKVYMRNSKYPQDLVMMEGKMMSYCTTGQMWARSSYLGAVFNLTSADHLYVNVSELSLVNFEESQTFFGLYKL
In words: SPR, binder captured on Protein A chip. The protocol: as §1, §2
In the case of B3, the binding result is “binds”.
Take B4: the binding result is “binds”.
On to B5, for which the binding result is “binds”.
B6: the binding result is “binds”.
As to B7, the binding result was “binds”.

In another experiment the target is T9, FLAG-cynoLIGHT (FLAG tag, cynomolgus monkey LIGHT Asp74-Val240) (cynomolgus monkey).
T9 construct: SEC trimer fraction; also called soluble cynomolgus monkey LIGHT trimer
T9 chain: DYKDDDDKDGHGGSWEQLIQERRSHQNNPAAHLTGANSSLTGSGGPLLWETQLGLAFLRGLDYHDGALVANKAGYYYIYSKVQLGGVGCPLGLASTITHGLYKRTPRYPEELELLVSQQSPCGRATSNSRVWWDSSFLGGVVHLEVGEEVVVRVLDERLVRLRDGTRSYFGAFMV
In words: SPR, binder captured on Protein A chip. As for the experimental part: as §1, §2
As to B3, the binding result is on record as “binds”.
Consider B4, for which the binding result was “binds”.
Consider B5, for which the binding result is reported as “binds”.
Take B6: the binding result is recorded as “binds”.
As for B7, the binding result is “binds”.

The target of a further experiment is T1, soluble recombinant of human TL1A …. In words: BIAcore SPR. The procedure, abridged: (§3)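 Binding of each test molecule to soluble recombinant His-tagged human or cynomolgus monkey LIGHT, TL1A or FasL was analysed by surface plasmon resonance. Measurements used a BIAcore T-100 or T-200 instrument (GE Healthcare) in HBS-EP+ Buffer. The dissociation constant (Kd, nM) was derived from these measurements.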
In the case of B3, the dissociation constant (Kd) – broadly, the equilibrium constant for the complex coming apart – came to 230 pM.
Regarding B4, the Kd was 300 pM.
For B5, the dissociation constant (Kd) was 240 pM.
The same measure, in the same setting: under B6 stands 180 pM; under B7, 210 pM.

In another experiment the target is T2, soluble recombinant of human LIGHT …. In words: BIAcore SPR. The procedure, abridged:
as §3
As to B3, the Kd stood at 330 pM.
In the case of B4, the Kd amounted to 350 pM.
For the molecule B5, the Kd was found to be 370 pM.
In the case of B6, the Kd was 260 pM.
In the case of B7, the Kd came out at 310 pM.

The target in another experiment is T3, soluble recombinant of human FasL …. In words: BIAcore SPR. The procedure, abridged:
as §3
B3: the equilibrium dissociation constant (Kd) is 5600 pM.
For the molecule B4, the Kd amounted to 4100 pM.
Turning to B5, the Kd came to 3800 pM.
Take B6: the equilibrium dissociation constant (Kd) amounted to 3900 pM.
As for B7, the Kd turned out to be 4100 pM.

Another experiment has as its target T10, soluble recombinant of cynomolgus monkey LIGHT (His10, GS linker, Asp74-Val240).
T10 chain: T2 chain with P29H, A30G, E44Q, V45N, S80D, V88A, T89N, S146N, A164V, K167E
Kind of experiment: BIAcore SPR. The procedure, abridged:
as §3
Consider B3, for which the equilibrium dissociation constant (Kd) was 300 pM.
As for B4, the Kd came out at 310 pM.
Turning to B5, the dissociation constant (Kd) was 390 pM.
For the molecule B6, the equilibrium dissociation constant (Kd) was found to be 250 pM.
For the molecule B7, the Kd is 320 pM.

A further experiment deals with T11, soluble recombinant of cynomolgus monkey FasL (His6, Pro133-Leu280) (UniProt P63308 133-280).
T11 chain: T3 chain with L10Q, S20P, N70T, R108H
In words: BIAcore SPR. The procedure, abridged: as §3
For the molecule B3, the equilibrium dissociation constant (Kd) came to 1100 pM.
As to B4, the Kd amounted to 1000 pM.
For the molecule B5, the Kd was 1000 pM.
Consider B6, for which the Kd was found to be 1100 pM.
Still for that read-out and setting: the value for B7 was 1000 pM.

A further experiment deals with T12, soluble recombinant of cynomolgus monkey TL1A (His6, GS linker, Leu72-Leu251).
T12 chain: T1 chain with F57L, I96V
In words: BIAcore SPR. The procedure, abridged: as §3
For B3, the Kd is 210 pM.
The same measure, in the same setting: under B4 stands 330 pM; under B5, 270 pM.
On the same count and under the same terms, under B6 stands 160 pM; under B7, 190 pM.

The values above are taken from US20220340642A1 (Kyowa Kirin, published 2022).
